For assay [1], the target named is Ku70 (human (endogenous in HCT116)) (UniProt P12956). Kind of assay: co-IP; lysates of control HCT116 cells and cells transduced with Ad-SM (SMAR1 overexpression) or sh3 (SMAR1 knock-down), precipitated with Ku70 or Bax antibody, immunoblot.
Assay [2] has as its target T1, SMAR1 of the in vitro GST pull-down (UniProt Q8VBU8).
T1 sequence: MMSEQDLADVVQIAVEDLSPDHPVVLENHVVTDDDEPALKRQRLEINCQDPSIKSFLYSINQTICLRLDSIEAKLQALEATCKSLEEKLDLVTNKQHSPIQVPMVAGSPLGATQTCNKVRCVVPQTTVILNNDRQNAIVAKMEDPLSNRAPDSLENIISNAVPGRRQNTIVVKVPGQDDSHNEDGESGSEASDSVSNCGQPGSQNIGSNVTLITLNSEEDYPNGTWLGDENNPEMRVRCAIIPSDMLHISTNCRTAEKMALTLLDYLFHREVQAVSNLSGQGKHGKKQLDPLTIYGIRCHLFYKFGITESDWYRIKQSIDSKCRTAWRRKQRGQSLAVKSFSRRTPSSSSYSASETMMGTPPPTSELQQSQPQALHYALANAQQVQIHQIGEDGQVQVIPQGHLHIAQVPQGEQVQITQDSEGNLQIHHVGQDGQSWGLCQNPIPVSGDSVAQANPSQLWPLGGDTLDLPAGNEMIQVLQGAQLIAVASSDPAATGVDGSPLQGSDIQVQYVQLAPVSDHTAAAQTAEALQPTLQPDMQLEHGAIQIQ
Nature of the assay: pull-down; in vitro GST pull-down (Supplementary Figure S2); which partner carried GST not told.

Amino acid sequences for entries named in this document (tags omitted).
UniProt P12956: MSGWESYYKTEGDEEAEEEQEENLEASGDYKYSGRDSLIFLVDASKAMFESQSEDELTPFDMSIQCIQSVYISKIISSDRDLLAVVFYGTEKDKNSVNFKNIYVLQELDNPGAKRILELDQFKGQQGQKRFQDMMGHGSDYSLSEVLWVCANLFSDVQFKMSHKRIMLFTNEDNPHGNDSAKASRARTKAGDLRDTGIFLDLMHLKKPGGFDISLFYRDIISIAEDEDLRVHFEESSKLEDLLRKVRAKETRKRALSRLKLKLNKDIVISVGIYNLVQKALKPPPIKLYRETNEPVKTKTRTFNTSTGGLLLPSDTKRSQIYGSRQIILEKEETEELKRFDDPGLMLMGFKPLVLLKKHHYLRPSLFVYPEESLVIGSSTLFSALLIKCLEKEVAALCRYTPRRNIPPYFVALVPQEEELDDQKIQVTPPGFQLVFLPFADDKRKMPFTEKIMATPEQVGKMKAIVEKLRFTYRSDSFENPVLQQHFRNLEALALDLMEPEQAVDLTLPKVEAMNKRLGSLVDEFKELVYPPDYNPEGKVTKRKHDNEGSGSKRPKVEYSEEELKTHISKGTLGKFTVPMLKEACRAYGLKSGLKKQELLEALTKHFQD
UniProt Q07812: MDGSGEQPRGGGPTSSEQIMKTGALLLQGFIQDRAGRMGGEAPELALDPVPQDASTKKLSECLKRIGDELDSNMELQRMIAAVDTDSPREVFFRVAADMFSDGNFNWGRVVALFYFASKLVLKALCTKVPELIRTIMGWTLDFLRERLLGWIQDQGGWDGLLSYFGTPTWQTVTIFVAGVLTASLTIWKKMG
UniProt Q9UBN7: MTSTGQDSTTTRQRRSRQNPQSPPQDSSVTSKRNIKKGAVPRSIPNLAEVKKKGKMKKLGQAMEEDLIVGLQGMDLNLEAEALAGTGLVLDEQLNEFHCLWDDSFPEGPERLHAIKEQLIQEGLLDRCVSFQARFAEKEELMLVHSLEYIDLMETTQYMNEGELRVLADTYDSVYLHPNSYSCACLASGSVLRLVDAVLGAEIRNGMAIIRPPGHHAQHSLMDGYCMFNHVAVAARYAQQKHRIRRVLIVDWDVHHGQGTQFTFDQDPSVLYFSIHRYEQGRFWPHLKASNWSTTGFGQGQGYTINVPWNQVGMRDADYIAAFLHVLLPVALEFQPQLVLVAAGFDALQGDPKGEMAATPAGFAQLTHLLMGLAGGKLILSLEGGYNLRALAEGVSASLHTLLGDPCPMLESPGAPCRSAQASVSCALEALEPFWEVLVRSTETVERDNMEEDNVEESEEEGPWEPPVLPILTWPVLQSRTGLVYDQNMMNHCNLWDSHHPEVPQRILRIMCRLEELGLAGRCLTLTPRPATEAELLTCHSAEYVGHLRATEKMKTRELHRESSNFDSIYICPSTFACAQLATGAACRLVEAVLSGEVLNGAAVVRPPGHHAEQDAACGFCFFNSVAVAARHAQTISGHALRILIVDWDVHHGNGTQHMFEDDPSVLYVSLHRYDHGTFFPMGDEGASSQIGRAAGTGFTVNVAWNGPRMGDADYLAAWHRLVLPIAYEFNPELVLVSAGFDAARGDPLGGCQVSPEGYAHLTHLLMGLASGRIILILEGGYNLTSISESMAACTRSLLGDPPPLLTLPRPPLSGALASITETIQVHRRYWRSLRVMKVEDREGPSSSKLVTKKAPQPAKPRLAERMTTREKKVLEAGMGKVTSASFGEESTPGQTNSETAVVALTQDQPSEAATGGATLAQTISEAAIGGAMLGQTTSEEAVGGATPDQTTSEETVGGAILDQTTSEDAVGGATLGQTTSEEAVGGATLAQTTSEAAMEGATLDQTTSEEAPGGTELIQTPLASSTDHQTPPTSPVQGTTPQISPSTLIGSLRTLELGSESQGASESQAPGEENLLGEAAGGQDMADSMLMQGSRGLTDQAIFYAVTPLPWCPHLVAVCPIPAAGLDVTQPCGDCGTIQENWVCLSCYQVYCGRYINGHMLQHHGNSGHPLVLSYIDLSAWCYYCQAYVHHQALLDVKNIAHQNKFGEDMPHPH

For assay [3], the target named is T2, scaffold/matrix-associated region-binding protein 1 (SMAR1) (human (endogenous in HCT116)) (UniProt Q8N9N5).
T2 sequence: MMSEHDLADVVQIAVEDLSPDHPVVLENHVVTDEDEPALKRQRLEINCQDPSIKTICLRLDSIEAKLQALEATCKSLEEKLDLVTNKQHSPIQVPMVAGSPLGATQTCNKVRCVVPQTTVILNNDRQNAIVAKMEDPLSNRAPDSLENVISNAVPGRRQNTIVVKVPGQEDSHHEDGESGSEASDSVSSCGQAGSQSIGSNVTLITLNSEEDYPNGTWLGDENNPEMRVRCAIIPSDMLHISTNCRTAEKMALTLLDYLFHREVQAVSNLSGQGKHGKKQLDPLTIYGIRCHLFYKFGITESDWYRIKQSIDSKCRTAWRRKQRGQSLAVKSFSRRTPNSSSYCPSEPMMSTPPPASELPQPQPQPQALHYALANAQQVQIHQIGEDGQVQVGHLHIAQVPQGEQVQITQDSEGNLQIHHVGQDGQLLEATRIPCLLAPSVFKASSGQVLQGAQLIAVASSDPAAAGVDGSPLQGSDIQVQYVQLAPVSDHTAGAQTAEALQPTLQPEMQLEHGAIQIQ
Nature of the assay: co-IP; sequential IP: HCT116 lysate (1 mg) first precipitated with SMAR1 antibody, eluate then precipitated with HDAC6 antibody, immunoblot. On the technique in general: Immunoblotting shows a protein as a band on a membrane.

In assay [4] the target is T2, scaffold/matrix-associated region-binding protein 1 (SMAR1) (human (endogenous in HCT116)). Nature of the assay: co-IP; in vivo interaction studies in HEK 293 and MCF-7 cells (Supplementary Figure S2).
The target in assay [5] is T3, Flag-tagged SMAR1 DNA-binding domain (350–548 residues) (UniProt Q8VBU8).
T3 sequence: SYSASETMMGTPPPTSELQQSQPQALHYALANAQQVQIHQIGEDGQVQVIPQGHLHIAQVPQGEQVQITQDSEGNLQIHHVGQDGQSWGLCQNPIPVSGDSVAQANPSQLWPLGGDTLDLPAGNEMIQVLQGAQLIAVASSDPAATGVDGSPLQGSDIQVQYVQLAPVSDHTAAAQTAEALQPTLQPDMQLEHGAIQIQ
Nature of the assay: co-IP; HCT116 cells transfected with Flag-tagged SMAR1 constructs, untreated or irradiated (10 Gy, 2 h), lysates precipitated with anti-Flag antibody, immunoblot.

In assay [6] the target is T4, Flag-tagged SMAR1 N-terminal region (1–160 residues) (UniProt Q8VBU8).
T4 sequence: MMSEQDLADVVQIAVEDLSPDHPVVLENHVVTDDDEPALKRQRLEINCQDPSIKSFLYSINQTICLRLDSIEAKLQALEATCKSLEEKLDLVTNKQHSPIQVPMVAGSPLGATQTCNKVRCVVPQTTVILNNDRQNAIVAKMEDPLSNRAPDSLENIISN
The assay is described as above.

Assay [7] addresses T5, Flag-tagged SMAR1 protein-interacting domain (160–350 residues) (UniProt Q8VBU8).
T5 sequence: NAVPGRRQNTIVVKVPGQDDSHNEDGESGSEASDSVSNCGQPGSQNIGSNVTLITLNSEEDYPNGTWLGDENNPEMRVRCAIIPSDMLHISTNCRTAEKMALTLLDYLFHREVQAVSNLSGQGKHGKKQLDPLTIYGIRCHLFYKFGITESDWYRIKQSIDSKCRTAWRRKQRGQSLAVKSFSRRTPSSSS
Described as above.

The target of assay [8] is T2, scaffold/matrix-associated region-binding protein 1 (SMAR1) (human (endogenous in HCT116)). Nature of the assay: co-IP; HCT116 whole-cell lysates, control or irradiated (10 Gy; 2 h, 8 h or time course), precipitated with SMAR1 antibody cross-linked to protein A/G beads, 4 °C for 4 h, immunoblot of eluates.
The target is the same in assay [9]. Kind of assay: co-IP; control and irradiated (10 Gy) HCT116 lysates treated with EtBr (50 μg/ml, 30 min, 4 °C) or DNase I (100 U/ml, 20 min, 37 °C), precipitated with SMAR1 antibody, blotted for Ku70.
In assay [10] the target is Ku70 (human (endogenous in HCT116)) (UniProt P12956). Kind of assay: co-IP; reverse IP in HCT116 cells (Supplementary Figure S2).

Results are given in words; binding and its absence hold for the method and conditions named. In cells and extracts the contact can be indirect. Some binding calls cover weakened binding; strength is not graded here. For some assays here: Tags and fused reporters may be left off the sequences shown.

As to Bax (from UniProt Q07812 1-192), the binding result in assay [1] is reported as “binds”.

For “Ku70 of the in vitro GST pull-down (from UniProt P12956 1-609)”, in assay [2], the binding entry is recorded as “binds”.

Consider “HDAC6 (from UniProt Q9UBN7 1-1215) (enzyme)”, for which, in [3], the binding entry is on record as “binds”.

As for Ku70 (from UniProt P12956 1-609), the binding entry in [4] is on record as “binds”; in [5] it was “no binding”; in [6], “no binding”; in assay [7], “binds”; in assay [8] it was “binds”; in assay [3] it was “binds”. Moreover, the binding entry in assay [9] is “binds”.

B1: scaffold/matrix-associated region-binding protein 1 (SMAR1) (protein, UniProt Q8N9N5 1-519)
chain: T2 sequence
For the molecule B1, the binding entry in assay [10] is on record as “binds”.

The record behind these values is PMC4237237.
